The record followed here is ChEMBL document CHEMBL1157539, “Thousands of chemical starting points for antimalarial lead identification” (Nature, 2010).

The full ranking holds about 13,000 compounds; the median of “IFI” is about 4, and the highest 2% start at about 17. The list shows a part of the results.

The assay in a line: GSK_TCMDC: Inhibition Frequency Index (IFI). The number of non-kinase HTS assays where a compound showed > 50 % inhibition, expressed as a percentage of the number of such assays in which the compound was tested (-0 is zero). The format is functional.
Consider `COc1cc(C(=O)NC2CCN(Cc3ccccc3)CC2)ccc1-c1nc2cc(Cl)c(Cl)cc2[nH]1`, for which the IFI is -0%.

Molecule `O=C(/C=C/c1ccsc1)N1CCC(CCN2CCC(c3c[nH]c4ccccc34)CC2)CC1` displayed an IFI of 3.79%.

`CN(C)Cc1cccc2nc(-c3csc(Cc4cc(Cl)ccc4OCc4ccccc4)n3)[nH]c12`: the IFI amounted to 10.2%.

`N#Cc1ccc(N/C(=N\c2ccc(-c3ccccc3)cc2)NCCc2c[nH]c3ccccc23)c(O)c1` came in with an IFI of 0.74%.

`COc1ccc(CCNCCCCCCNCCc2ccc(Cl)cc2)c(Cl)c1OC` displayed an IFI of 10.4%.

The molecule `CN(C)CCOc1ccc2c(c1)OC(C)(C)C=C2c1cccc2ccccc12` gave an IFI of 2.19%.

In the case of `O=C(NC1CC1)c1ccc(N2CCC(c3ccccc3)CC2)nc1`, the IFI was -0%.

In turn, `FC(F)(F)c1ccc2[nH]ccc(=NN=Cc3cccc(Cl)c3)c2c1` had an IFI of 0%.

With `c1ccc2[nH]c(-c3ccc(-c4ccc(CN5CCC(N6CCCCC6)CC5)cc4)s3)nc2c1`, the IFI came to 5.36%.

`CCOc1c(OC)ccc2c1CCN(CCN1CCC(CNC(=O)c3ccc(-c4ccc(C(F)(F)F)cc4)cc3)CC1)C2` yielded an IFI of 11.7%.

Consider `COc1cc2nc(SCCCC#N)n(C3CCCCCC3)c(=N)c2cc1OC`, for which the IFI came out at 3.6%.

The molecule `Cc1nccn1Cc1cc(C(C)(C)C)c(O)c(C(C)(C)C)c1` showed an IFI of 1.48%.

Regarding `COc1ccc(CN2CCC(Oc3cccc(NC(=O)c4ccc(C(F)(F)F)cc4)c3)CC2)cc1`, the IFI worked out at 10.4%.

`CN(C)c1ccc(CN2CCC(CNC(=O)c3cc(-c4cccc(F)c4)cs3)C2)cc1` (stereo not drawn): the IFI was determined as 6.12%.

In turn, `O=[N+]([O-])c1ccc(N/C(=N\c2ccccc2Br)NC2CCCc3ccccc32)c(O)c1` (stereo not drawn) showed an IFI of 4.17%.

In the case of `COc1ccc2ncc(F)c([C@@H](O)CN3CCC(NCc4cc5c(cn4)OCCO5)CC3)c2c1`, the IFI was found to be 0.93%.

For `CCCC1N=C(N)N=C(N)N1c1ccc(CC)cc1` (stereo not drawn), the IFI worked out at 1.44%.

Turning to `O=C(C=CC(=O)N1CCCCC1)NCc1ccccc1`, the IFI was -0%.

As for `Cc1cc(N/N=C/c2cccc([N+](=O)[O-])c2)c2cc(F)ccc2n1`, the IFI was 0%.

Molecule `CCCC(CNCc1ccccc1)CNc1cc(=O)c2ccccc2[nH]1` (stereo not drawn) came in with an IFI of 3.62%.

In turn, `Cc1[nH]c2ccccc2c1C(=O)C(C)Sc1nnc(-c2ccccc2F)o1` (stereo not drawn) returned an IFI of 1.64%.

`CCCc1ccccc1OCC(O)CN(C1CCCC1)C1CCCC1` (stereo not drawn): the IFI is 8.28%.

Consider `CN(c1ccccc1C(=O)Nc1cc(Cl)ccc1Oc1ccccc1)S(=O)(=O)c1ccccc1`, for which the IFI came to 1.87%.

`CN(C)Cc1c(O)ccc2[nH]c(-c3cccc(F)c3)nc12` gave an IFI of 1.2%.

Consider `CCN(CC)CCN(CCCc1ccc(-c2ccc(C(F)(F)F)cc2)cc1)C(=O)Cn1c(CCc2cccc(F)c2F)nc(=O)c2ccccc21`, for which the IFI came to 7.91%.

For `CN(C)c1ccc(NC2=NC(N)=NC(C)(C)N2)cc1`, the IFI was 1.82%.

Consider `COc1ccc2nc3cc(Cl)ccc3c(NCCNCC(O)CO)c2n1` (stereo not drawn), for which the IFI came out at 3.4%.

`Cc1cc(CN2CCCN(c3ccc4c(c3)CCN(Cc3ccc(-c5ncc[nH]5)cc3)CC4)CC2)n(C)n1` gave an IFI of 1.72%.

As to `O=[N+]([O-])c1cccc(CNC2CCN(Cc3ccc(Cl)c(Cl)c3)CC2)c1`, the IFI amounted to 2.88%.

In the case of `CCOC(=O)CNC(=O)N(CCN(Cc1ccccc1)C(=O)NCC(=O)OCC)Cc1ccccc1`, the IFI was determined as 0.73%.

In the case of `N#Cc1ccc2c(c1)CCN(CCC1CCC(NC(=O)/C=C/c3c[nH]c4ccc(F)cc34)CC1)CC2` (stereo not drawn), the IFI worked out at 2.26%.

The molecule `CC(C)c1ccc(C2CCN(CCCCNC(=O)c3ccc(NC(=O)c4ccc(C(F)(F)F)cc4)cc3)CC2)c(O)c1` displayed an IFI of 10.3%.

`Cc1cccc(CCNC(=O)c2cc(Br)cc(N3CCN(c4ccncc4)CC3)c2)c1` registered an IFI of 13.8%.

Take `O=C(Nc1ccc2ccccc2c1)N(CCCn1ccnc1)Cc1csc(-c2ccc(CNCc3ccccc3)cc2)n1`: the IFI came out at 8.11%.

`COc1ccccc1CCNc1nc(C)cc(N[C@@H](Cc2ccccc2)C(=O)NCc2cccc(F)c2)n1` came in with an IFI of 16.3%.

Molecule `O=C(CSc1nccn1C1CCCC1)Nc1cc(C(F)(F)F)ccc1Cl` came in with an IFI of 5.36%.

`c1csc(-c2ccc3c(c2)CC(NCc2c[nH]c4cnccc24)C3)c1` (stereo not drawn) displayed an IFI of 2.33%.

The molecule `COc1cc(C(=O)Nc2ccc3nc(N4CCN(C)CC4)cc(C)c3c2)cc(OC)c1OC` showed an IFI of 0%.

For the molecule `CO[C@H](C)[C@H](NC(=O)[C@H](CC(C)C)[C@H](CCC(F)(F)F)N(O)C=O)C(=O)Nc1nccs1`, the IFI is 3.68%.

In turn, `CC(=O)Nc1ccc(CNC2Cc3ccc(-c4ccc(Cl)c(Cl)c4)cc3C2)cc1` (stereo not drawn) returned an IFI of 16.1%.

In turn, `FC(F)(F)COc1ccc2ccccc2c1CCNCCCCNCCc1c(OCC(F)(F)F)ccc2ccccc12` showed an IFI of 23.4%.

For `CCOc1ccc(C=CC(=O)Nc2ccc3nc(N4CCN(C)CC4)cc(C)c3c2)cc1OC`, the IFI amounted to 5.44%.

As for `COc1ccc(NC(=O)c2ccc(Br)c(C)c2)cc1N1CCN(Cc2ccccc2)CC1`, the IFI is -0%.

`Clc1cccc(C23N/C(=N\c4nc5ccccc5[nH]4)NC2(c2ccccc2)N/C(=N\c2nc4ccccc4[nH]2)N3)c1` (stereo not drawn) had an IFI of 3.62%.

Consider `Cc1cc(Cl)c(S(=O)(=O)NC2CCCC2)cc1OCC(=O)NC1CCCCC1`, for which the IFI worked out at 8.93%.

The molecule `CS(=O)(=O)c1ccc2c(c1)CCN(CCC1CCC(NC(=O)c3cc4cccc(Br)c4[nH]3)CC1)CC2` (stereo not drawn) gave an IFI of 7.59%.

Take `COc1ccc(CN2CCCC(N3CC4(OC3=O)c3ccccc3-c3ccccc34)C2)c(O)c1` (stereo not drawn): the IFI is 1.57%.

In the case of `CN(C)c1c(CNCCCCCCNCc2ccc3ccccc3c2N(C)C)ccc2ccccc12`, the IFI amounted to 15.7%.

For `Cc1c(F)cc(C(=O)NC2CC2)cc1-c1ccc2c(c1)c(C)nn2S(=O)(=O)c1cccs1`, the IFI was 3.55%.

In turn, `COc1cc2nc(N3CC(C)N(C(=O)Cc4ccc(-c5ccccc5)cc4)C(C)C3)nc(N)c2cc1OC` (stereo not drawn) returned an IFI of 6.09%.

Molecule `O=S(=O)(Nc1ccc(CCN2CCC(N3CCCCC3)CC2)cc1)c1ccccc1C(F)(F)F` returned an IFI of 3.28%.

Turning to `COc1ccccc1C1CCN(C2CCC(NC(=O)c3cc4ccccc4[nH]3)CC2)CC1` (stereo not drawn), the IFI amounted to 16.4%.

For the molecule `C#CCOc1ccc2ccccc2c1CNCCCCCCNCc1c(OCC#C)ccc2ccccc12`, the IFI worked out at 14.1%.

For the molecule `COc1ccc(C(=O)NC2CCN(c3ccnc4cc(Cl)ccc34)C2)cc1` (stereo not drawn), the IFI was 3.08%.

`COc1cccc(CC(=O)NC2CCN(c3ccnc4cc(Cl)ccc34)C2)c1` (stereo not drawn) yielded an IFI of 1.54%.

As for `OC1CCCN(Cc2ccc(-c3ccc(-c4nc5ccccc5[nH]4)cc3)cc2)C1` (stereo not drawn), the IFI was 5.63%.

`COc1c(C2CCN(CCCCNC(=O)c3noc(-c4ccc(C#N)cc4)n3)CC2)ccc2c1CCCC2` came in with an IFI of 5.5%.

The molecule `CC(C)CCN(Cc1cncn1Cc1cccc(C(F)(F)F)c1)C(=O)c1ccccc1C#N` came in with an IFI of 2.63%.
